{"source": "PubChem BioAssay AID485294", "about": "(National Center for Advancing Translational Sciences (NCATS), 2010)", "note": "The campaign covered roughly 370,000 compounds. About 150 (0.041%) were called active. Inconclusive results, whose numbers are uncertain, are shown with a selection of clear calls. Calls come from the whole dose curve; as a rule, active = well fitted inhibition curve with a large enough effect; inconclusive = small, poorly fitted or top-dose-only effect; inactive = flat fitted curve, though single readings scatter. No potency is given beside an inconclusive call; the fits are too rough. Potency is the fitted concentration of half-maximal effect; tags give direction and shape of the fitted curve.", "data": [{"target": "Beta-lactamase (Escherichia coli (strain K12)) (UniProt P00811)", "sequence (P00811 whole entry, looked up)": "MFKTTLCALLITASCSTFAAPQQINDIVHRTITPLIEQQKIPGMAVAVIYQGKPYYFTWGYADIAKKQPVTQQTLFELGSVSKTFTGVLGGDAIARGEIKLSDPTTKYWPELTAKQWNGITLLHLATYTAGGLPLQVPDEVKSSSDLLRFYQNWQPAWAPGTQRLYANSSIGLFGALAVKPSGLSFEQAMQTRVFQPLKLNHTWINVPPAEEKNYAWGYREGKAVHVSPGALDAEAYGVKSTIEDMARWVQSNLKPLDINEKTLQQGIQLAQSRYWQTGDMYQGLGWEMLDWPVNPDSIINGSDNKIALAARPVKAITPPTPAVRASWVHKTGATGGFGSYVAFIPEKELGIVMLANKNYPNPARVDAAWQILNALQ", "assay": "qHTS Inhibitors of AmpC Beta-Lactamase (assay with detergent); note: nearly all actives have a fitted effect of over 25% in size", "settings": "AmpC hydrolysis of nitrocefin, absorbance 480 nm, 0.01% Triton; series mostly up to 114 µM", "outline": "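20 mM phosphate pH 7.0 + 0.01% (detergent screen) or 0.0001% Triton X-100; 5.3 nM AmpC reagent; cpd preinc 15 min RT; nitrocefin (800 uM stock) to start; A480 q20 s × 4 min; Activity was normalised to no-enzyme and no-compound control wells.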", "values": [{"smiles": "CN1CCC(N2CC3CC(C2)c2cccc(=O)n2C3)CC1", "note": "(configuration not stated)", "Potency": "inconclusive [inhibitor, partial curve]"}, {"smiles": "CCc1cccc(N=c2c([N+](=O)[O-])nn(-c3ccc(Cl)cc3)n2O)c1", "Potency": "inactive"}, {"smiles": "C/C(=N/O)c1ccccn1", "Potency": "inconclusive [inhibitor, full curve]"}, {"smiles": "Oc1ccc(C(c2nnnn2C2CCCCC2)N2CCOCC2)cc1", "note": "(configuration not stated)", "Potency": "inactive"}, {"smiles": "C=CCNC(=S)NNC(=O)c1cc(C)nc2ccccc12", "Potency": "inconclusive [inhibitor, partial curve, poor fit]"}, {"smiles": "Cc1cc(NC(=O)c2sc(Nc3cccc(C(F)(F)F)c3)nc2N)no1", "Potency": "inconclusive [inhibitor, partial curve, poor fit]"}, {"smiles": "O=C(O)CNC(=O)c1ccc(S(=O)(=O)N2CCOCC2)cc1", "Potency": "inconclusive [inhibitor, single point]"}, {"smiles": "Nc1ccc(S(=O)(=O)N2CCCc3ccccc32)cc1", "Potency": "inconclusive [inhibitor, full curve, poor fit]"}, {"smiles": "O=C(CN1C(=O)c2cccc3cccc(c23)C1=O)N1CCN(c2ccccn2)CC1", "Potency": "inconclusive [inhibitor, partial curve]"}, {"smiles": "O=C(Nc1cccc(S(=O)(=O)N2CCOCC2)c1)c1cccc(S(=O)(=O)N2CCCCC2)c1", "Potency": "inconclusive [inhibitor, full curve, poor fit]"}, {"smiles": "CCNS(=O)(=O)c1ccc(NC(=S)NCc2ccco2)cc1", "Potency": "inactive"}, {"smiles": "Cc1cc(-n2c(C)nc3ccccc3c2=O)ccc1NC(=O)c1cccc([N+](=O)[O-])c1", "Potency": "inactive"}, {"smiles": "CCN(CC)S(=O)(=O)c1ccc(/C=C/C(=O)NC2CCCCC2)cc1", "Potency": "inconclusive [inhibitor, full curve, poor fit]"}, {"smiles": "COc1ccc(C(=O)NC(C)C2CC3CCC2C3)c(OC)c1", "note": "(configuration not stated)", "Potency": "inactive"}, {"smiles": "CC1CN(C(=O)CCNS(=O)(=O)c2ccc(Br)cc2)CC(C)O1", "note": "(configuration not stated)", "Potency": "inconclusive [inhibitor, partial curve, poor fit]"}, {"smiles": "C=CCOC(=O)C1=C(C)NC(=O)NC1c1ccc(N(C)C)cc1", "note": "(configuration not stated)", "Potency": "inactive"}, {"smiles": "CC(C)CNc1cc(N2CCCC2)ccc1[N+](=O)[O-]", "Potency": "inconclusive [inhibitor, partial curve]"}, {"smiles": "CN=C(NC1CCCCC1)c1ccc([N+](=O)[O-])cc1", "Potency": "inactive"}, {"smiles": "CCc1ccc(NC(=S)N2CCCCCCC2)cc1", "Potency": "inconclusive [inhibitor, full curve]"}, {"smiles": "CSCCC(NC(=O)COc1ccccc1)C(=O)N(C)Cc1cccc(F)c1", "note": "(configuration not stated)", "Potency": "inconclusive [inhibitor, single point]"}, {"smiles": "CSc1ccc(C(=O)C2CCCN(C(=O)CCn3cncn3)C2)cc1", "note": "(configuration not stated)", "Potency": "inconclusive [inhibitor, full curve, poor fit]"}, {"smiles": "CCc1nnc(NC(=O)CN2CCN(Cc3ccccc3C)CC2)s1", "Potency": "inactive"}, {"smiles": "N/C(COc1ccccc1)=N\\NS(=O)(=O)c1ccccc1", "Potency": "inactive"}, {"smiles": "O=C1CCC(C(=O)Nc2cc(C(F)(F)F)ccc2-n2cncn2)=NN1", "Potency": "inconclusive [inhibitor, partial curve]"}, {"smiles": "COc1ccccc1-n1c(C)c(C(C)=O)c2cc(O)ccc21", "Potency": "inconclusive [inhibitor, full curve, poor fit]"}, {"smiles": "Fc1ccc(CNc2nc(-c3ccccc3)cc(C(F)(F)F)n2)cc1", "Potency": "inactive"}, {"smiles": "COc1ccc(CNC(=O)C/C(C)=N/NC(=O)C23CC4CC(CC(C4)C2)C3)cc1", "Potency": "inactive"}, {"smiles": "CCOC(=O)c1ccc(Nc2ncnc3nc[nH]c23)cc1", "Potency": "inconclusive [inhibitor, single point]"}, {"smiles": "OC(CNCc1ccncc1)c1ccccc1", "note": "(configuration not stated)", "Potency": "inconclusive [inhibitor, full curve, poor fit]"}, {"smiles": "CCN(CC)c1ccc(NC(=O)CSc2ccsc2[N+](=O)[O-])c(C)c1", "Potency": "inconclusive [inhibitor, full curve, poor fit]"}, {"smiles": "COc1ccccc1N1CCN(C(=O)c2ccc3nc[nH]c3c2)CC1", "Potency": "inconclusive [inhibitor, single point]"}, {"smiles": "CCC(C)C(=O)Nc1ccc(OC)cc1OC", "note": "(configuration not stated)", "Potency": "inconclusive [inhibitor, single point]"}, {"smiles": "Cc1cccc(-c2nc(CS(=O)CC(=O)N3CCN(C)CC3)c(C)o2)c1", "note": "(configuration not stated)", "Potency": "inconclusive [inhibitor, partial curve]"}, {"smiles": "CCN1/C(=C\\c2ccc3cc(C)ccc3[n+]2CC)Sc2cc(C)c(C)cc21", "Potency": "inactive"}, {"smiles": "COc1cccc(CN(C)CC(=O)Nc2sc3c(c2C#N)CCC3)c1OC", "Potency": "inconclusive [inhibitor, partial curve]"}, {"smiles": "CC1CN(Cc2nc3c(c(=O)n(C)c(=O)n3C)n2CCCO)CC(C)O1", "note": "(configuration not stated)", "Potency": "inconclusive [inhibitor, full curve, poor fit]"}, {"smiles": "CC1Sc2ccc(S(=O)(=O)N3CCC(C(=O)NCCc4ccccc4)CC3)cc2NC1=O", "note": "(configuration not stated)", "Potency": "inactive"}, {"smiles": "OC(COc1ccc(Br)cc1)CN1CCC(Cc2ccccc2)CC1", "note": "(configuration not stated)", "Potency": "inconclusive [inhibitor, full curve]"}, {"smiles": "COCCN(C(=O)CSc1nc2ccccc2c(=O)n1CCOC)c1c(N)n(Cc2ccccc2)c(=O)[nH]c1=O", "Potency": "inconclusive [inhibitor, partial curve, poor fit]"}, {"smiles": "CC1(C)COCN1S(=O)(=O)c1ccc(C(=O)Nc2nnc(-c3ccc(Cl)s3)o2)cc1", "Potency": "inactive"}, {"smiles": "Cc1ccc(NC(=O)C2CCCN2S(=O)(=O)c2cccc3cccnc23)cc1C", "note": "(configuration not stated)", "Potency": "inactive"}, {"smiles": "c1csc(-c2nn3c(-c4ccncc4)nnc3s2)c1", "Potency": "inconclusive [inhibitor, full curve, poor fit]"}, {"smiles": "CCN1C(Nc2ccccc2)=NC[C@@H]1Cc1ccccc1", "Potency": "inconclusive [inhibitor, full curve]"}, {"smiles": "CCN(CC)c1ccc(C2C(C(N)=O)=C(C)Nc3ncnn32)cc1", "note": "(configuration not stated)", "Potency": "inactive"}, {"smiles": "Cc1ccc(NCc2nnc3n2CCCCC3)cc1", "Potency": "inconclusive [inhibitor, partial curve, poor fit]"}, {"smiles": "Cn1ccnc1SCC(=O)Nc1cc(Cl)ccc1Cl", "Potency": "inactive"}, {"smiles": "Cc1ccc(CS(=O)(=O)Cc2ccc(C(=O)NCc3cccs3)o2)cc1", "Potency": "inconclusive [inhibitor, single point]"}, {"smiles": "Cc1c(CCC(=O)N2CCC[C@H]2C(=O)O)c(=O)oc2c(C)c3oc4c(c3cc12)CCCC4", "Potency": "inconclusive [inhibitor, partial curve, poor fit]"}, {"smiles": "COC(=O)c1ccc(OC)c(-c2c(OC)cc(OC)cc2OC)c1", "Potency": "inconclusive [inhibitor, full curve]"}, {"smiles": "NS(=O)(=O)c1cccc(NC(=O)COC(=O)CN2C(=O)c3ccccc3C2=O)c1", "Potency": "inconclusive [inhibitor, full curve, poor fit]"}, {"smiles": "Cc1c(CCOC(=O)C23CC4CC(CC(C)(C4)C2)C3)sc[n+]1Cc1ccccc1", "Potency": "inconclusive [inhibitor, single point]"}, {"smiles": "Cc1ccc(NC(=O)C(NS(=O)(=O)c2cccc3nsnc23)C(C)C)nc1", "note": "(configuration not stated)", "Potency": "inconclusive [inhibitor, partial curve]"}, {"smiles": "COCCCNC(=O)Cc1coc2ccc3ccccc3c12", "Potency": "inconclusive [inhibitor, full curve, poor fit]"}, {"smiles": "CCN(CC(=O)Nc1c(F)cccc1F)C(=O)C1CCN(S(=O)(=O)c2ccc(C)c(C)c2)CC1", "Potency": "inconclusive [inhibitor, partial curve, poor fit]"}, {"smiles": "Cc1ccc(S(=O)(=O)n2c3ccc(F)cc3c3nc(C)sc32)cc1", "Potency": "inconclusive [inhibitor, full curve, poor fit]"}, {"smiles": "Cc1ccc(-c2csc(N(CC3CCCO3)C(=O)c3ccco3)n2)cc1", "note": "(configuration not stated)", "Potency": "inconclusive [inhibitor, full curve, poor fit]"}, {"smiles": "Cc1ccc(C(=O)N/C(=C\\c2cccs2)C(=O)NCc2ccncc2)cc1", "Potency": "inconclusive [inhibitor, partial curve, poor fit]"}, {"smiles": "O=C(C(=O)N1CCOCC1)c1cn(CC(=O)N2CCc3ccccc3C2)c2ccccc12", "Potency": "inconclusive [inhibitor, single point]"}, {"smiles": "N#Cc1nc(-c2ccccc2)oc1NCc1ccco1", "Potency": "inconclusive [inhibitor, full curve, poor fit]"}, {"smiles": "O=C(Nc1nc2c(s1)CCCC2)c1ccc(Br)s1", "Potency": "inconclusive [inhibitor, full curve, poor fit]"}, {"smiles": "CC(=O)c1ccc(S(=O)(=O)N(C)CCCC(=O)N2CCN(c3ncccn3)CC2)cc1", "Potency": "inconclusive [inhibitor, full curve, poor fit]"}, {"smiles": "CCCCN(C)C(=O)c1cc2c(s1)-c1ccccc1S(=O)(=O)C2", "Potency": "inactive"}, {"smiles": "O=C(OCCOc1ccccc1F)c1cccc(S(=O)(=O)N2CCOCC2)c1", "Potency": "inconclusive [inhibitor, single point]"}, {"smiles": "CCN1CCN(C(=O)c2ccc3c(c2)N(Cc2ccc(F)cc2)C(=O)c2ccccc2S3=O)CC1", "note": "(configuration not stated)", "Potency": "inconclusive [inhibitor, single point]"}, {"smiles": "CC(=O)Oc1ccc(Cl)cc1/C=C/c1cc(OC(C)=O)c2ccccc2n1", "Potency": "inconclusive [inhibitor, full curve, poor fit]"}, {"smiles": "O=C(OCC(=O)c1ccc[nH]1)c1ccc(Cl)nc1", "Potency": "inconclusive [inhibitor, full curve, poor fit]"}, {"smiles": "COCc1cc(C)nc(SCC(=O)NCc2ccco2)c1C#N", "Potency": "inconclusive [inhibitor, single point]"}]}]}
